From article PMC6212790 come the findings set out here.

The list shows a part of the results. At the low end of the ranking the order means little.

The target in this assay is T1, GST-Rok-C97-191 (UniProt O34857).
T1 sequence: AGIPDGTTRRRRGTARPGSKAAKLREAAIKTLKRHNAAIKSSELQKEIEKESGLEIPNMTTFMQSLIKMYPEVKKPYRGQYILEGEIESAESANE
The assay can be described thus: protein binding microarray.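 Note: rank score from −0.5 (least bound) to 0.5 (best bound).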 The note with it: Rok is a gene silencer of Bacillus subtilis; high values mean tight binding; most listed sequences are background and not binding sites; double strand, one strand shown.
As for ATATCCAT, the binding signal was determined as 0.197 E-score. As for CTTATAGA, the figure is 0.073 E-score; as for AAGTCACC, -0.0302 E-score; as for CGACTATC, -0.0118 E-score. The sequence ATCCAAAA showed a binding signal of 0.0916 E-score. Regarding CCTTCTGA, the binding signal is -0.235 E-score. CCCTGCGC returned a binding signal of -0.162 E-score. As to CCAAACCA, the binding signal is -0.102 E-score. For CTTGTGCC the value was -0.124 E-score. As to GGCCACTA, the binding signal is -0.0465 E-score.

TCTGTTCA showed a binding signal of -0.0916 E-score.

ACGCTATC: the binding signal was 0.121 E-score. For GAGCAAAA the value was -0.137 E-score; for AAATTTTG, 0.187 E-score; for CGCTTAGC, -0.224 E-score. Sequence ACGCACAG registered a binding signal of -0.0447 E-score.

Sequence ATGTGTGA yielded a binding signal of -0.017 E-score. As for AGACTCGG, the figure is -0.171 E-score; as for AGCACTCC, 0.0522 E-score; as for TTTATAAA, 0.283 E-score. As for ATAGGGGC, the figure is -0.205 E-score. For ATAGCTAG the value was 0.271 E-score; for GGGTGTTA, -0.0544 E-score; for TCAGTCAA, -0.113 E-score. Take GCCACCGA: the binding signal is -0.0711 E-score. With CCTCATTC, the binding signal was -0.0967 E-score.

For the sequence AGAAGGGC, the binding signal was -0.234 E-score. CGCAAACG had a binding signal of -0.0299 E-score. As for ACGGGCTC, the figure is -0.184 E-score; as for GACGGGGA, -0.238 E-score.

Consider GCTGAGCA, for which the binding signal is -0.0543 E-score. As for ATCGAGAT, the figure is 0.104 E-score. Sequence CGCAGGGC registered a binding signal of -0.287 E-score.

The sequence AAAGGGCG had a binding signal of -0.172 E-score. GTTATAAC: the binding signal came to 0.18 E-score. GCAGGTAC: the binding signal was found to be 0.0415 E-score. In turn, CTTACCCC gave a binding signal of -0.204 E-score. As for CCGCCGTC, the figure is -0.247 E-score; as for CCCCGATA, -0.0977 E-score. For ATGTTTTC the value was 0.207 E-score. In turn, ACGGGATG returned a binding signal of -0.0737 E-score. For ACGCCAAC the value was -0.118 E-score; for AGTAGAAC, 0.234 E-score. As for ACATCATG, the figure is -0.155 E-score; as for AGATAAGA, -0.0192 E-score; as for ACAGGCTG, -0.19 E-score. CCCGTCTC had a binding signal of -0.241 E-score. For AGAAAGCT, the binding signal came to 0.292 E-score.

As to GTACCCGA, the binding signal was determined as 0.115 E-score. For GGACTGTA the value was 0.135 E-score. In the case of CGTTTATA, the binding signal was 0.196 E-score.

Regarding ACCAGGGG, the binding signal is -0.125 E-score.

For the sequence GCGCTAAA, the binding signal was found to be 0.143 E-score.

Turning to ATAGGGCA, the binding signal was found to be 0.0459 E-score. Sequence CGACTGAC gave a binding signal of -0.0626 E-score. As for AGATGAGC, the figure is -0.0848 E-score; as for GATACCGC, 0.024 E-score.

Regarding CTTATCGC, the binding signal stood at 0.155 E-score. For the sequence CACTTAAG, the binding signal was 2.2e-05 E-score. For the sequence GGAAAACC, the binding signal is -0.0509 E-score. For ATGTGTCC the value was 0.0399 E-score; for AGTTTCTC, 0.244 E-score; for GATCGCAA, 0.0316 E-score. For CGGGGCTA the value was -0.192 E-score. GAAATCAC: the binding signal worked out at 0.114 E-score. Regarding TGCCCACA, the binding signal is -0.149 E-score. As for ACAGCTCG, the figure is 0.00556 E-score.

AGTAACGG had a binding signal of 0.118 E-score. For CAAATCAC the value was 0.0129 E-score; for GCACCTAC, 0.101 E-score; for CGCATATA, 0.0882 E-score. As for CAGGTTGA, the figure is -0.124 E-score; as for AACAAGGG, -0.173 E-score; as for GCTACTAC, 0.264 E-score. As for CGCGTAAA, the figure is 0.0976 E-score. GGAGAGAA had a binding signal of 0.0553 E-score. As for AACTAGGC, the figure is 0.0168 E-score; as for GGCCCATA, -0.0669 E-score. For TAACAACA the value was 0.00501 E-score. With ACACACCT, the binding signal was found to be 0.0408 E-score. As for CGAACAGC, the figure is -0.182 E-score. For GTTATAAA the value was 0.247 E-score; for GAGTGACC, -0.317 E-score; for AGGGACTC, -0.228 E-score. The sequence GGCTGAGA returned a binding signal of -0.00381 E-score. For CAGGGTAA the value was -0.053 E-score; for AGAACTCA, -0.025 E-score. For CAGATCGA the value was -0.0671 E-score. For AATGATAA the value was 0.255 E-score. With GCTAACCA, the binding signal is -0.102 E-score. As for AGTATAGA, the figure is 0.224 E-score; as for CGGGGCGA, -0.298 E-score.

In the case of GGCTTGCA, the binding signal is -0.00502 E-score.

The sequence AGCGAGCG yielded a binding signal of -0.0911 E-score.

CAGCGGGG gave a binding signal of -0.145 E-score.

With AACCGGAC, the binding signal is -0.00623 E-score.

As to CCAGAGGC, the binding signal was -0.0209 E-score.

For the sequence CCGAATGC, the binding signal was determined as 0.015 E-score.

CCTATTCG displayed a binding signal of -0.0809 E-score.

The sequence CCAGACAA returned a binding signal of -0.19 E-score. Take ACACACTG: the binding signal is -0.116 E-score.

Consider GTACAAAC, for which the binding signal amounted to 0.304 E-score. As for CGAAAATC, the figure is 0.0534 E-score; as for ACGTTCCA, -0.0685 E-score. For CTATTGAA the value was 0.0715 E-score; for ACAAGCCG, -0.177 E-score; for TACACTCA, 0.00258 E-score.

Turning to CCTCTCTC, the binding signal is -0.114 E-score. As to GTGCAGGA, the binding signal was -0.0316 E-score. As for CACGTGTC, the figure is 0.0021 E-score.

GCAATACA registered a binding signal of 0.079 E-score. Consider CATTGTAG, for which the binding signal turned out to be 0.161 E-score. For AAACTCAT the value was 0.0953 E-score. ACCAGATG showed a binding signal of -0.0406 E-score. For AACAGGTC the value was -0.195 E-score; for ACCTGACC, -0.0121 E-score; for AGGACGAC, -0.24 E-score.

As for ATACGTTC, the binding signal is 0.0985 E-score. For AATTAGTG the value was 0.28 E-score; for ACTACCTC, 0.26 E-score.

Turning to CTGATACC, the binding signal is -0.0515 E-score. As for GAGTAGTA, the figure is 0.305 E-score; as for CCTATTTA, 0.315 E-score. As for ACACAGCC, the figure is -0.0644 E-score; as for GAGCAATC, -0.00778 E-score; as for TATAGTCA, 0.119 E-score. As for GTCCTAAC, the figure is -0.11 E-score; as for CGACGACC, -0.148 E-score; as for AATAAAAC, 0.228 E-score.

On to GGAGCGCA, for which the binding signal is -0.312 E-score. Take CAAAAAGC: the binding signal was -0.211 E-score.

Regarding ATAGGTCC, the binding signal is 0.0227 E-score. For CCGTACGG the value was -0.141 E-score; for ACTAGTCG, 0.181 E-score.

The sequence AAGGCCAC registered a binding signal of -0.266 E-score. As for TAAGTAAA, the figure is 0.27 E-score; as for TACCGTGA, 0.14 E-score.

On to CCGTTCAC, for which the binding signal was -0.0306 E-score. For CTGTGTTA, the binding signal was found to be 0.0704 E-score.

The sequence AGACTACT displayed a binding signal of 0.198 E-score.

Take CTCCCGAA: the binding signal is -0.108 E-score. As for CATCAACG, the figure is -0.00383 E-score. ACTTGTCA displayed a binding signal of 0.229 E-score.

With ACTTGAAG, the binding signal was 0.0191 E-score. As for TAGTCCGA, the figure is -0.0536 E-score; as for TATTTAAA, 0.186 E-score.

Regarding CCGGAACA, the binding signal was -0.172 E-score. The sequence GACCTTCA gave a binding signal of -0.0794 E-score. In turn, AGTTTGTA had a binding signal of 0.367 E-score. As for AGGGACAT, the figure is -0.143 E-score; as for AGGTCGCC, -0.312 E-score. As to ATTGCTTA, the binding signal was 0.102 E-score. The sequence AGGATTAT yielded a binding signal of 0.151 E-score. For GGTTGAAA the value was -0.00182 E-score.

GTCAACAA gave a binding signal of 0.0719 E-score. For GCAACGGA the value was -0.142 E-score; for GATGTCAC, -0.109 E-score; for GAACAACC, -0.0483 E-score. With AGGTGTTA, the binding signal turned out to be 0.0754 E-score. In turn, CAGTGTAC yielded a binding signal of 0.0867 E-score. As for CTGGCTGC, the figure is -0.155 E-score.

CCTGGTAG displayed a binding signal of 0.151 E-score. In turn, CTGGCAAA had a binding signal of -0.0718 E-score. For the sequence ACCCCAGT, the binding signal is -0.17 E-score. GACTATGA came in with a binding signal of -0.0171 E-score. For CACTCGCA the value was -0.00263 E-score.

ATAACTCC gave a binding signal of 0.18 E-score. Sequence GCCGGTCC displayed a binding signal of -0.247 E-score. TACGTGAA had a binding signal of 0.0208 E-score. ATAGCCGA: the binding signal is 0.0034 E-score.

Turning to GTAATAAA, the binding signal is 0.236 E-score. As for CATAGTCG, the figure is 0.0698 E-score.
